Experimental data: the supplement of paper PMC11876631
Substitutions are numbered along the chain they refer to. Names and notes keep the numbering of the source. ± gives the standard deviation of the averaged measurements. Laboratory Escherichia coli strains with one amino-acid change in an essential protein, pooled on minimal glucose agar with carbenicillin or gentamicin at twice the control MIC (plus kanamycin and chloramphenicol for the plasmids), 48 h. Fold change of barcode share against drug-free plates; higher = less susceptible. Active = above 20 in both replicates (the paper's putatively resistant). '<' = one read or none on drug, '>' = one read or none on a drug-free plate. Shares are relative, so most strains fall below 1 when a few take over. Listed are strains with at least 15 reads on both drug-free plates, and hits; most hits rest on fewer reference reads. Replicate rank correlation about 0.5. Edits are read from barcodes.

B1: hisF V175A (protein)
chain: MLAKRIIPCLDVRDGQVVKGVQFRNHEIIGDIVPLAKRYAEEGADELVFYDITASSDGRVVDKSWVSRVAEVIDIPFCVAGGIKSLEDAAKILSFGADKISINSPALADPTLITRLADRFGVQCIVVGIDTWYDAETGKYHVNQYTGDESRTRVTQWETLDWVQEVQKRGAGEIALNMMNQDGVRNGYDLEQLKKVREVCHVPLIASGGAGTMEHFLEAFRDADVDGALAASVFHKQIINIGELKAYLATQGVEIRIC
B2: hisF V175Q (protein)
chain: B1 chain with A175Q
B3: hisF V175D (protein)
chain: B1 chain with A175D
B4: argH F259Q (protein)
chain: MALWGGRFTQAADQRFKQFNDSLRFDYRLAEQDIVGSVAWSKALVTVGVLTAEEQAQLEEALNVLLEDVRARPQQILESDAEDIHSWVEGKLIDKVGQLGKKLHTGRSRNDQVATDLKLWCKDTVSELLTANRQLQSALVETAQNNQDAVMPGYTHLQRAQPVTFAHWCLAYVEMLARDESRLQDALKRLDVSPLGCGALAGTAYEIDREQLAGWLGFASATRNSLDSVSDRDHVLELLSAAAIGMVHLSRFAEDLIFQNTGEAGFVELSDRVTSGSSLMPQKKNPDALELIRGKCGRVQGALTGMMMTLKGLPLAYNKDMQEDKEGLFDALDTWLDCLHMAALVLDGIQVKRPRCQEAAQQGYANATELADYLVAKGVPFREAHHIVGEAVVEAIRQGKPLEDLPLSELQKFSQVIDEDVYPILSLQSCLDKRAAKGGVSPQQVAQAIAFAQARLG
B5: hisF V79W (protein)
chain: B1 chain with V79W, A175V
B6: hisF V79Q (protein)
chain: B1 chain with V79Q, A175V
B7: hisF V79P (protein)
chain: B1 chain with V79P, A175V
B8: hisF V69A (protein)
chain: B1 chain with V69A, A175V
B9: hisF V69P (protein)
chain: B1 chain with V69P, A175V
B10: hisF V126A (protein)
chain: B1 chain with V126A, A175V
B11: hisF V126P (protein)
chain: B1 chain with V126P, A175V
B12: hisG I167A (protein)
chain: MTDNTRLRIAMQKSGRLSDDSRELLARCGIKINLHTQRLIAMAENMPIDILRVRDDDIPGLVMDGVVDLGIIGENVLEEELLNRRAQGEDPRYFTLRRLDFGGCRLSLATPVDEAWDGPLSLNGKRIATSYPHLLKRYLDQKGISFKSCLLNGSVEVAPRAGLADAACDLVSTGATLEANGLREVEVIYRSKACLIQRDGEMEESKQQLIDKLLTRIQGVIQARESKYIMMHAPTERLDEVIALLPGAERPTILPLAGDQQRVAMHMVSSETLFWETMEKLKALGASSILVLPIEKMME
B13: hisG I167W (protein)
chain: B12 chain with A167W
B14: hisG I217A (protein)
chain: B12 chain with A167I, I217A
B15: hisG I217Q (protein)
chain: B12 chain with A167I, I217Q
B16: hisG M265A (protein)
chain: B12 chain with A167I, M265A

Target: Escherichia coli (laboratory strain)
Assay: barcode share on antibiotic plates over drug-free plates; higher = less susceptible
Experimental: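 A pool of E. coli strains, each edited to carry one amino-acid change in an essential protein, was grown for 48 h on minimal glucose agar with or without antibiotic; strain barcodes were sequenced; mean of two replicates.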

[1] = antibiotic: carbenicillin, 2× MIC (3.1 µg/mL)
[2] = antibiotic: gentamicin, 2× MIC (MIC 0.45 µg/mL)

Row | Protein | fold change of barcode share [1] | fold change of barcode share [2]
1 | B1 | 0.406 ± 0.052 | < 0.0188
2 | B2 | 111 [active] | –
3 | B3 | > 35.8 [active] | –
4 | B4 | 0.322 ± 0.11 | 0.0327 ± 0.029
5 | B5 | 49.6 [active] | –
6 | B6 | 27.9 [active] | –
7 | B7 | 73.4 [active] | –
8 | B8 | 0.512 ± 0.16 | 0.00797 ± 0.0069
9 | B9 | 33.4 [active] | –
10 | B10 | 0.86 ± 0.18 | < 0.016
11 | B11 | 153 [active] | –
12 | B12 | 0.688 ± 0.025 | 0.0191 ± 0.0041
13 | B13 | 2.79 ± 0.35 | 0.0577 ± 0.00065
14 | B14 | 0.7 ± 0.41 | 0.0138 ± 0.011
15 | B15 | 0.59 ± 0.012 | < 0.00997
16 | B16 | 0.957 ± 0.12 | < 0.0168
